# Reference: the supplement of paper PMC8728848
# Some of the results follow.
# Legend:
# Experiment in all cases: glycan array binding signal (z-score within array); higher = stronger binding
# Settings in all cases: glycan notation: IUPAC condensed, linker removed
# [1] = target: Gal(b1-3)[Fuc(a1-4)]GlcNAc
# Method in brief: (§1)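 Arrays were curated from the Consortium for Functional Glycomics database, 3228 in total, and kept only where the protein sequence was available. Binding is expressed as a within-array Z-score. This score was averaged across arrays of the same protein sequence at different concentrations or buffers and across linkers, and negative values can be read as non-binding.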
# [2] = target: Gal(b1-3)[Fuc(a1-4)]GlcNAc(b1-2)Man(a1-3)[Gal(b1-3)[Fuc(a1-4)]GlcNAc(b1-2)Man(a1-6)]Man(b1-4)GlcNAc(b1-4)GlcNAc
# Method in brief: as §1
# [3] = target: Gal(b1-3)[Fuc(a1-4)]GlcNAc(b1-2)Man(a1-3)[Gal(b1-3)[Fuc(a1-4)]GlcNAc(b1-2)Man(a1-6)]Man(b1-4)GlcNAc(b1-4)[Fuc(a1-6)]GlcNAc
# Method in brief: as §1
# [4] = target: Gal(b1-3)[Fuc(a1-4)]GlcNAc(b1-3)Gal(b1-3)[Fuc(a1-4)]GlcNAc
# Method in brief: as §1
# [5] = target: Gal(b1-3)[Fuc(a1-4)]GlcNAc(b1-3)Gal(b1-4)GlcNAc
# Method in brief: as §1
# [6] = target: Gal(b1-3)[Fuc(a1-4)]GlcNAc(b1-3)Gal(b1-4)[Fuc(a1-3)]GlcNAc
# Method in brief: as §1
# [7] = target: Gal(b1-3)[GlcNAc(b1-6)]GalNAc
# Method in brief: as §1
# [8] = target: Gal(b1-3)[Neu5Ac(a2-6)]GalNAc
# Method in brief: as §1
# [9] = target: Gal(b1-3)[Neu5Ac(a2-6)]GlcNAc(b1-6)Gal(b1-4)Glc
# Method in brief: as §1
# [10] = target: Gal(b1-3)[Neu5Ac(b2-6)]GalNAc
# Method in brief: as §1
# [11] = target: Gal(b1-4)GalNAc(a1-3)[Fuc(a1-2)]Gal(b1-4)GlcNAc
# Method in brief: as §1
# [12] = target: Gal(b1-4)GalNAc(b1-3)[Fuc(a1-2)]Gal(b1-4)GlcNAc
# Method in brief: as §1
# [13] = target: Gal(b1-4)Glc
# Method in brief: as §1
# [14] = target: Gal(b1-4)Glc6S
# Method in brief: as §1
# [15] = target: Gal(b1-4)GlcNAc
# Method in brief: as §1
# [16] = target: Gal(b1-4)GlcNAc(a1-6)Gal(b1-4)GlcNAc
# Method in brief: as §1
# [17] = target: Gal(b1-4)GlcNAc(b1-2)Man(a1-3)Man(b1-4)GlcNAc(b1-4)GlcNAc
# Method in brief: as §1
# [18] = target: Gal(b1-4)GlcNAc(b1-2)Man(a1-3)[Gal(b1-4)GlcNAc(b1-2)Man(a1-6)]Man(b1-4)GlcNAc(b1-4)GlcNAc
# Method in brief: as §1
# [19] = target: Gal(b1-4)GlcNAc(b1-2)Man(a1-3)[Gal(b1-4)GlcNAc(b1-2)Man(a1-6)]Man(b1-4)GlcNAc(b1-4)[Fuc(a1-6)]GlcNAc
# Method in brief: as §1
# [20] = target: Gal(b1-4)GlcNAc(b1-2)Man(a1-3)[GlcNAc(b1-2)Man(a1-6)]Man(b1-4)GlcNAc(b1-4)GlcNAc
# Method in brief: as §1
# [21] = target: Gal(b1-4)GlcNAc(b1-2)Man(a1-3)[Man(a1-6)]Man(b1-4)GlcNAc(b1-4)GlcNAc
# Method in brief: as §1
# [22] = target: Gal(b1-4)GlcNAc(b1-2)Man(a1-6)Man(b1-4)GlcNAc(b1-4)GlcNAc
# Method in brief: as §1
# [23] = target: Gal(b1-4)GlcNAc(b1-2)Man(a1-6)[GlcNAc(b1-2)Man(a1-3)]Man(b1-4)GlcNAc(b1-4)GlcNAc
# Method in brief: as §1
# [24] = target: Gal(b1-4)GlcNAc(b1-2)Man(a1-6)[Man(a1-3)]Man(b1-4)GlcNAc(b1-4)GlcNAc
# Method in brief: as §1
# [25] = target: Gal(b1-4)GlcNAc(b1-2)[Gal(b1-4)GlcNAc(b1-4)]Man(a1-3)[Gal(b1-4)GlcNAc(b1-2)Man(a1-6)]Man(b1-4)GlcNAc(b1-4)GlcNAc
# Method in brief: as §1
# [26] = target: Gal(b1-4)GlcNAc(b1-2)[Gal(b1-4)GlcNAc(b1-4)]Man(a1-3)[Gal(b1-4)GlcNAc(b1-2)[Gal(b1-4)GlcNAc(b1-6)]Man(a1-6)]Man(b1-4)GlcNAc(b1-4)GlcNAc
# Method in brief: as §1
# [27] = target: Gal(b1-4)GlcNAc(b1-3)Gal(b1-3)GlcNAc
# Method in brief: as §1
# [28] = target: Gal(b1-4)GlcNAc(b1-3)Gal(b1-4)Glc
# Method in brief: as §1
# [29] = target: Gal(b1-4)GlcNAc(b1-3)Gal(b1-4)GlcNAc
# Method in brief: as §1
# [30] = target: Gal(b1-4)GlcNAc(b1-3)Gal(b1-4)GlcNAc(b1-3)Gal(b1-4)GlcNAc
# Method in brief: as §1
# [31] = target: Gal(b1-4)GlcNAc(b1-3)Gal(b1-4)[Fuc(a1-3)]GlcNAc(b1-3)Gal(b1-4)[Fuc(a1-3)]GlcNAc
# Method in brief: as §1
# [32] = target: Gal(b1-4)GlcNAc(b1-3)GalNAc
# Method in brief: as §1
# [33] = target: Gal(b1-4)GlcNAc(b1-3)[Gal(b1-4)GlcNAc(b1-6)]Gal(b1-4)GlcNAc
# Method in brief: as §1
# [34] = target: Gal(b1-4)GlcNAc(b1-3)[Gal(b1-4)GlcNAc(b1-6)]GalNAc
# Method in brief: as §1
# [35] = target: Gal(b1-4)GlcNAc(b1-3)[GlcNAc(b1-6)]Gal(b1-4)GlcNAc
# Method in brief: as §1
# [36] = target: Gal(b1-4)GlcNAc(b1-6)Gal(b1-4)GlcNAc
# Method in brief: as §1
# [37] = target: Gal(b1-4)GlcNAc(b1-6)GalNAc
# Method in brief: as §1
binder,measurement,setting,value
"SLP (Clostridium difficile), Q183M8 (protein) MATTGTQGYTVVKNDWKKAVKQLQDGLKDNSIGKITVSFNDGVVGEVAPKSANKKADRDAAAEKLYNLVNTQLDKLGDGDYVDFSVDYNLENKIITNQADAEAIVTKLNSLNEKTLIDIATKDTFGMVSKTQDSEGKNVAATKALKVKDVATFGLKSGGSEDTGYVVEMKAGAVEDKYGKVGDSTAGIAINLPSTGLEYAGKGTTIDFNKTLKVDVTGGSTPSAVAVSGFVTKDDTDLAKSGTINVRVINAKEESIDIDASSYTSAENLAKRYVFDPDEISEAYKAIVALQNDGIESNLVQLVNGKYQVIFYPEGKRLETKSLEHHHHHH",glycan array binding signal (z-score),[1],-0.182
same,glycan array binding signal (z-score),[2],7.99
same,glycan array binding signal (z-score),[3],5.55
same,glycan array binding signal (z-score),[4],-0.138
same,glycan array binding signal (z-score),[5],-0.182
same,glycan array binding signal (z-score),[6],-0.174
same,glycan array binding signal (z-score),[7],0.097
same,glycan array binding signal (z-score),[8],-0.129
same,glycan array binding signal (z-score),[9],1.18
same,glycan array binding signal (z-score),[10],-0.129
same,glycan array binding signal (z-score),[11],-0.166
same,glycan array binding signal (z-score),[12],-0.158
same,glycan array binding signal (z-score),[13],-0.156
same,glycan array binding signal (z-score),[14],-0.116
same,glycan array binding signal (z-score),[15],-0.203
same,glycan array binding signal (z-score),[16],-0.14
same,glycan array binding signal (z-score),[17],-0.163
same,glycan array binding signal (z-score),[18],-0.173
same,glycan array binding signal (z-score),[19],-0.144
same,glycan array binding signal (z-score),[20],-0.087
same,glycan array binding signal (z-score),[21],-0.159
same,glycan array binding signal (z-score),[22],-0.174
same,glycan array binding signal (z-score),[23],-0.176
same,glycan array binding signal (z-score),[24],-0.196
same,glycan array binding signal (z-score),[25],-0.145
same,glycan array binding signal (z-score),[26],-0.173
same,glycan array binding signal (z-score),[27],-0.091
same,glycan array binding signal (z-score),[28],2.4
same,glycan array binding signal (z-score),[29],-0.205
same,glycan array binding signal (z-score),[30],-0.192
same,glycan array binding signal (z-score),[31],-0.185
same,glycan array binding signal (z-score),[32],-0.188
same,glycan array binding signal (z-score),[33],-0.203
same,glycan array binding signal (z-score),[34],-0.146
same,glycan array binding signal (z-score),[35],-0.209
same,glycan array binding signal (z-score),[36],-0.185
same,glycan array binding signal (z-score),[37],-0.185
